Source: article PMC4336329 (PLoS ONE, 2015)
The whole screen tested about 310,000 compounds, of which about 14,000 (4.5%) showed an effect of 50% or more. Effects have a minus sign here. The list shows a part of the results.

Biological target: human ether-à-go-go-related gene (hERG) potassium channel (human, UniProt Q12809)
Assay: primary screen, population patch clamp on CHO cells stably expressing hERG
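Further: peak tail current of the secondary pulse compared with the same well before compound.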

human ether-à-go-go-related gene (hERG) potassium channel, sequence (Q12809 whole entry, looked up): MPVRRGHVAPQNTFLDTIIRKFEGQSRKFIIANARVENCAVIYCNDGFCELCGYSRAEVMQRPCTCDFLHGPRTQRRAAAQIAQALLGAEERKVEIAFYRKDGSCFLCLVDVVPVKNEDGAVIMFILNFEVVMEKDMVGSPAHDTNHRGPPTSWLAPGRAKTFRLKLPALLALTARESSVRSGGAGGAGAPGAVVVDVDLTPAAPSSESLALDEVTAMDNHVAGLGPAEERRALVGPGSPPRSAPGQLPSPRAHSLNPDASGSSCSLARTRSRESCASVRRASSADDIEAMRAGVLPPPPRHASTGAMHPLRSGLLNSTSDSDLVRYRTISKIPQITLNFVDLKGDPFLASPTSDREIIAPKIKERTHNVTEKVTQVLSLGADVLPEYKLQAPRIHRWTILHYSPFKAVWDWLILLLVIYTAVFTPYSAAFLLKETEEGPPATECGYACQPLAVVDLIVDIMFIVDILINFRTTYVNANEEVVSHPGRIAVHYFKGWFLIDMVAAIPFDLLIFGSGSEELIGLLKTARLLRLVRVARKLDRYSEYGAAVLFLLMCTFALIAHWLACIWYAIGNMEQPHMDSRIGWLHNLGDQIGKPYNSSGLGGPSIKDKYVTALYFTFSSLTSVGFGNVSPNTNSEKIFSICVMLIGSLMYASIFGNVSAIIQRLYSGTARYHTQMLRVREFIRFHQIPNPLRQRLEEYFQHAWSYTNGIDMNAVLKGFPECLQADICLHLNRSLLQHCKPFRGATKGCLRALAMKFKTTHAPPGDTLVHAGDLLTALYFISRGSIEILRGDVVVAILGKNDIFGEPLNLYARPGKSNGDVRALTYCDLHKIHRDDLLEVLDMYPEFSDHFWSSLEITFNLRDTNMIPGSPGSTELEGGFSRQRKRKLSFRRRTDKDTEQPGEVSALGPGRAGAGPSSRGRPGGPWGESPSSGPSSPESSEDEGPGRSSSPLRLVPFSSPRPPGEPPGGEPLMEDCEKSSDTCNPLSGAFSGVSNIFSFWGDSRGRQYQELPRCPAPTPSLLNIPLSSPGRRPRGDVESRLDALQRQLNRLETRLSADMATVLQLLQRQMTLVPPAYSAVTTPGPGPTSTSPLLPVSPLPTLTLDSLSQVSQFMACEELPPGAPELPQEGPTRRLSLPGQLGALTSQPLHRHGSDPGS

SMILES | hERG current change (%, negative = inhibition) at 10uM [%]
CC(C)CNC(=S)NC1CC2CCCC(C1)N2Cc1cccs1 (stereo not drawn) | -34.8
CCOc1ccc(CN(C)C(=O)c2ccc(NS(=O)(=O)c3ccc4[nH]c(=O)[nH]c4c3)cc2)cc1 | 18.3
COc1cc(OC)cc(-c2nc(-c3ccccc3)no2)c1 | 5.45
CS(=O)(=O)c1ccc2nnn(OCC(=O)Nc3ccc(Br)cc3Br)c2c1 | 7.34
COc1cc2c(cc1NC(=O)COc1ccccc1OC)oc1ccccc12 | 13.8
CC(C)(C)NC(=O)CSc1ncnc2c1nnn2Cc1ccccc1Cl | -13.2
O=C(Nc1cc(Cl)ccc1N1CCCC1)C1=NN(c2ccccc2)C(=O)CC1 | -16.9
CCOC(=O)c1c2c(n(C)c1COC)C(=O)C(=O)c1ccc(Br)cc1-2 | 17.1
Cc1oc2ccc(OC(C(=O)O)c3ccccc3)cc2c1C(=O)O (stereo not drawn) | 3.65
Cc1ccc(CNC(=O)CSc2nc(C)cs2)cc1 | 15.4
COc1ccc(N(CC(=O)N2CCc3ccccc3C2)S(=O)(=O)c2ccccc2)cc1 | -32.1
COc1ccc(CN(CC(=O)NCc2ccc(F)cc2)C(=O)CCC(=O)Nc2nccs2)cc1 | -20.4
Cc1ccc([N+](=O)[O-])cc1 | 11.4
CN(CC(=O)NCCc1ccccc1)S(=O)(=O)c1cccs1 | 0.465
CCCN(CCC)CCNC(=O)c1cc2c(-c3ccccc3F)nn(C)c2s1 | -47.2
COc1ccc(C(=O)NCc2ccc(-c3nc4ccccc4s3)cc2)cc1 | 10.1
O=C(CN(Cc1ccc(F)cc1)C(=O)C1CSC(=O)C1)NC1CCCCC1 (stereo not drawn) | -22
Cc1ccccc1NC(=O)CSC1=NCCN1.Cl | 16
Cc1ccccc1C1c2[nH]c3ccccc3c2CCN1C(=O)c1ccc(=O)n(C)n1 (stereo not drawn) | -10.6

SMILES | hERG current change (%, negative = inhibition) at 10uM [%]
Cc1cc2cc(C#N)c(NCCNC(=S)NCCCN3CCOCC3)nc2cc1C | -24.5
Cn1c(SCC(=O)Nc2cc(Cl)cc(Cl)c2)nnc1-c1ccc2nonc2c1 | 21.1
CCOC(=O)CNC(=O)C1(/C=C/c2ccccc2)CC(=O)N1c1ccc(C)cc1 (stereo not drawn) | -12.4
CCC1CCCCN1C(=S)NC1CCCCC1 (stereo not drawn) | 17.2
CCOc1ccc(NC(=O)C2CC(=O)N(c3ccccc3F)C2)cc1 (stereo not drawn) | 5.41
CS(=O)(=O)Nc1ccc(C(=O)NCc2ccc3c(c2)OCO3)cc1 | -27.8
CCCCOc1cccc(NC(=O)CSc2nncn2C)c1 | -9.67
CC(C)OCCCNC(=O)NC12CC3CC(CC(C3)C1)C2 | -9.81
O=C(CN(Cc1ccc(Br)cc1)S(=O)(=O)c1ccccc1)NCc1ccccn1 | -42
O=C(OCC1OC(Oc2ccc(O)cc2)C(O)C(O)C1O)c1ccccc1 (stereo not drawn) | 14.5
Cc1ccc(S(=O)(=O)c2nc(-c3ccccc3)oc2NCc2cccnc2)cc1 | -16
Cc1ccc(-c2nc(COC(=O)c3c(C)noc3C)cs2)cc1 | -11.7
COc1ccc(OC)c2c1cc(C(=O)N[C@@H](Cc1ccccc1)C(=O)O)n2C | 17.3
COc1cccc(C2C(C(=O)Nc3ccc(C)cc3C)=C(C)Nc3ncnn32)c1OC (stereo not drawn) | 7.02
CC(C)C[C@@H](CC#N)N1CCN(Cc2ccccc2)CCC1=O | 2.24
O=[N+]([O-])c1ncccc1OCc1ccc(Br)cc1F | 13
Cc1[nH]n(-c2ccccc2)c(=O)c1C(c1ccccc1[N+](=O)[O-])C(C#N)C#N (stereo not drawn) | 12.9
COc1ccc(C(C)(C)C)cc1NC(=O)Cn1cnnn1 | 9.38
Cc1cccc(CN2CCNC2=O)c1 | 16.3

SMILES | hERG current change (%, negative = inhibition) at 10uM [%]
O=C(CN1CCN(S(=O)(=O)N2CCCCC2)CC1)Nc1cc(Cl)cc(Cl)c1 | -32.5
O=c1c(OC2OC(CO)C(O)C(O)C2OC2OC(CO)C(O)C(O)C2OC2OC(CO)C(O)C(O)C2O)c(-c2ccc(O)c(O)c2)oc2cc(O)cc(O)c12 (stereo not drawn) | 11.1
CCOC(=O)CN(C#N)c1nc(N(C)C)nc(N(C)C)n1 | 2.45
O=C(Nc1ccc(Cl)cn1)C1C(c2ccccc2)C1(Cl)Cl (stereo not drawn) | 15.7
CC(=O)Nc1ccc(NC(=O)COC(=O)c2c(-c3ccccc3)noc2C)cc1 | 1.7
COC(=O)c1ccc(OCC(=O)c2ccccc2OC)cc1 | -12.1
CCN1CCCC1CNCC(=O)Nc1ccc(OC(F)(F)F)cc1.O=C(O)C(=O)O (stereo not drawn) | -70.7
COc1ccccc1CO/N=C/c1cccn1-c1nccc(N(C)C)c1C#N | -17.2
CCCCOC(=O)Nc1nnc(-c2ccccc2OC)s1 | 6.26
CCC(C)C(NC=C1C(=O)OC(C)(C)OC1=O)C(=O)O (stereo not drawn) | -4.97
COc1ccc(-n2ccc3ccccc32)cc1 | 13
O=S(=O)(Nc1nc(-c2ccccc2)cs1)c1cc(Cl)ccc1Cl | 18.3
CN1C(=O)CC(c2ccccc2)C1=O (stereo not drawn) | 3.18
O=C(Cc1nc2ccccc2[nH]1)c1ccc(Br)cc1 | -12.7
C=CCN1C(=O)c2ccc(C(=O)N(C)CC(=O)Nc3ccccc3C(F)(F)F)cc2C1=O | 2.6
CCCCn1c(O)c(C(C)=NCc2ccc(F)cc2)c(=O)[nH]c1=O | -5.52
Cc1cc(C)cc(NC(=S)NCc2cccnc2)c1 | -15.8
CCC(=O)N1c2ccc(S(=O)(=O)N(CCO)Cc3ccccc3)cc2CC1C (stereo not drawn) | -18.5
COC(=O)C(NC(C)=O)(Nc1ccc(C)cn1)C(F)(F)F (stereo not drawn) | 16.7
